Data published in the supplement of paper PMC3334620.
The full ranking holds about 33,000 sequences; the median of “E-score (-0.5 to 0.5)” is about -0.012, and the highest 2% start at about 0.27. The list shows a part of the results.

biological target: T1, Vhr1 (UniProt P40522); assay: PBM E-score (8-mer binding enrichment) (E-score (-0.5 to 0.5)); higher = stronger / more preferred TF binding; most listed sequences are background and not binding sites; conditions: protein concentration: 200 nM; construct: GST-full length
T1 sequence: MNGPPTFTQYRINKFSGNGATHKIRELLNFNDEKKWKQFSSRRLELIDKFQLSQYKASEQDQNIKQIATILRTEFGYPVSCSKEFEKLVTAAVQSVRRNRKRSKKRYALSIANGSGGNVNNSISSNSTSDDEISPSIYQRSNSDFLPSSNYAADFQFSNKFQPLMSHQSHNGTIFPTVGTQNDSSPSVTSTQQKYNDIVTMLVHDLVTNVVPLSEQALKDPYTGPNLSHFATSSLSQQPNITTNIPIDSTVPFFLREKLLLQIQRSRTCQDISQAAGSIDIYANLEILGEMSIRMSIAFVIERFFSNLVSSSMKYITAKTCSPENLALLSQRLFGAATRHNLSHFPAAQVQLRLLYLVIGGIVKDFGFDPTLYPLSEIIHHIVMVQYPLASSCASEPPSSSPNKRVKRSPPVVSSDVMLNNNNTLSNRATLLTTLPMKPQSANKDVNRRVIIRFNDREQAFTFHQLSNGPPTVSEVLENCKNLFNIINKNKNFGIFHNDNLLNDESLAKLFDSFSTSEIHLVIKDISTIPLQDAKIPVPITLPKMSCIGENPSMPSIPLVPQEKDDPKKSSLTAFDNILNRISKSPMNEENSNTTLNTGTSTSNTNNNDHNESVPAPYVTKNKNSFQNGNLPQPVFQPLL
Outline: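 GST-tagged yeast TFs (full-length or DNA-binding domain) were made by PURExpress in vitro transcription/translation and applied at about 100-200 nM to universal all-10-mer Agilent arrays. The arrays were made double-stranded by primer extension, on fresh or once-stripped slides. Bound protein was detected with fluorescent anti-GST, and scans were normalised with masliner. Each ungapped eight-base word, pooled with its reverse complement, received an E-score (modified Wilcoxon-Mann-Whitney statistic) from the Universal PBM Analysis Suite.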

Row | Sequence | PBM E-score
1 | AGGGCCGA | 0.134
2 | CGGTAGCA | 0.113
3 | ACGCGGCA | -0.115
4 | CAACGCGA | -0.0146
5 | ACGGACGC | -0.142
6 | ACCGCGCA | 0.135
7 | GTTGGCCA | -0.026
8 | GAACGAGA | 0.00657
9 | CCACTACG | -0.0403
10 | GGTGGGCA | -0.0273
11 | AAACGTCA | -0.1
12 | ATTCGGTC | -0.0276
13 | GAGACAGA | 0.109
14 | ATTGCAGG | 0.0245
15 | TTTACAAA | -0.0509
16 | ATTGAAAT | -0.0246
17 | AGATGGTG | 0.0635
18 | CCGGCGCG | 0.0587
19 | TATGTAAA | 0.0903
20 | ATCATCAG | 0.0874
21 | AGTATCAA | 0.184
22 | CCGCTTCG | -0.142
23 | CGGTTGGA | -0.184
24 | AACAAGCA | 0.0363
25 | CAGAAGCG | 0.028

Row | Sequence | PBM E-score
26 | CGTGCGGC | 0.0491
27 | GTTTTAAA | -0.136
28 | GCGGGTGA | 0.293
29 | GTGTCCAA | 0.0322
30 | GTAATTAC | 0.119
31 | ACCGTAGC | -0.0527
32 | ACCTCATG | -0.0837
33 | GCCGCAGC | 0.0307
34 | GGAGAATA | 0.0931
35 | CAGGGAGG | -0.00313
36 | CCACGACA | 0.0244
37 | ACGCTGGA | 0.106
38 | CTGTTATC | -0.071
39 | GATATTTA | -0.0727
40 | CGTCAACC | -0.12
41 | TAGTTGCA | 0.0409
42 | CTGCAGTA | -0.0493
43 | TCTAAAAA | -0.234
44 | ACCTTTTC | -0.166
45 | GTTTGACA | -0.168
46 | CCCGCCGC | 0.36
47 | TGAAAGAA | -0.248
48 | ATTTGCGA | -0.0446
49 | CCTCCACG | -0.149
50 | AAGGGGAG | -0.0987

Row | Sequence | PBM E-score
51 | CGGGTAGA | -0.0495
52 | CATCACCA | 0.167
53 | TACGACAA | 0.17
54 | CGCGTACC | -0.00725
55 | ACCACTCC | 0.152
56 | AGAAGATG | -0.183
57 | ACAGGTAT | 0.137
58 | AGCCTTTA | -0.169
59 | GTGCGAAC | -0.037
60 | ATCGCGGA | 0.00117
61 | CTACAGTC | -0.0114
62 | ACATAACG | -0.0442
63 | CCCCGTGC | -0.00049
64 | CCTTTATA | -0.307
65 | ACGCACGT | -0.13
66 | ACGATAGA | -0.136
67 | AGATCCGG | -0.166
68 | CCATGTTC | 0.0255
69 | AAAAGAAT | -0.113
70 | GACGCGAA | 0.0106
71 | AACTCCTC | -0.268
72 | GCGGCATA | -0.0994
73 | GTTCAAGA | -0.143
74 | GCCTACCC | -0.1
75 | ATCGGAAA | -0.12

Row | Sequence | PBM E-score
76 | GCCCTACC | 0.0565
77 | CCGCCGTC | 0.132
78 | ATGGAGCA | 0.0442
79 | ATGGTGGG | 0.0211
80 | CGCGCAGA | 0.205
81 | TACTTACA | 0.0616
82 | TAATGAAA | -0.276
83 | CAGGCGAG | -0.119
84 | AGGACATC | -0.108
85 | ACCAGTGA | 0.197
86 | GAATTGAA | -0.123
87 | CTAGCCTC | -0.0849
88 | AATCGGAC | -0.152
89 | CCACTGTA | 0.0971
90 | ACTGAGCG | -0.127
91 | GGCGTGAA | -0.169
92 | CAGCGGCA | -0.021
93 | GCGTATCA | 0.175
94 | AAGTCCAC | -0.224
95 | TGACAGCA | 0.127
96 | ACGACGTG | 0.114
97 | CACACTAG | -0.0647
98 | GGCTACAA | 0.0795
99 | ACGAATGA | 0.153
100 | CGACTTGA | -0.0845

Row | Sequence | PBM E-score
101 | GAACTCAA | 0.0249
102 | CTGTGCTC | 0.15
103 | AATTTTGT | -0.11
104 | AGCACGAC | 0.0474
105 | AATTCAGC | -0.0451
106 | ATCCTGGC | -0.11
107 | CACAGTCC | 0.0437
108 | GCACTAAC | 0.0497
109 | GAAAGGGA | -0.147
110 | AGCGGCTG | -0.111
111 | AACTCTCG | -0.0555
112 | TGTGCTAA | 0.167
113 | GGACTTTA | -0.174
114 | AACCTTAG | -0.0607
115 | GGACCCGA | -0.0237
116 | GTGACAAA | -0.0829
117 | TAAATACA | -0.0291
118 | TCGTGAAA | -0.266
119 | ACCAACGG | 0.023
120 | AGCGGTTG | 0.111
121 | CGGCAGAC | -0.0221
122 | AGCAGGGG | -0.222
123 | ATGGTGCC | -0.261
124 | CCCCGCCA | 0.398
125 | AGTATGCG | -0.0241

Row | Sequence | PBM E-score
126 | CAGTTATG | 0.16
127 | AGGCGTCG | 0.0371
128 | AACGTGCT | -0.0508
129 | AAATAATA | 0.2
130 | GCACCCGA | 0.116
131 | AGACTTAT | -0.0344
132 | ACATGTAT | 0.246
133 | CGCCCTCA | -0.16
134 | CGCAAGCA | 0.121
135 | AGATGACC | -0.0573
136 | ATGAAGGC | -0.0695
137 | CTTAACCA | 0.0943
138 | TAAACGAA | -0.204
139 | ACGCGAAT | 0.077
140 | GGACTAGA | -0.138
141 | AACTTCTT | -0.182
142 | CATGTGAC | 0.198
143 | AACATAGA | 0.0485
144 | ACCGCAGG | 0.0293
145 | AACAATCT | -0.00162
146 | AAGGTAAA | -0.196
147 | CGCGTCGC | -0.0637
148 | ACCATTAT | 0.169
149 | TGACATAA | 0.0509
150 | CACGATGG | -0.0474

Row | Sequence | PBM E-score
151 | AATGCGAG | -0.0244
152 | GCACCTAA | 0.0537
153 | AGTCGGTG | 0.246
154 | TATTAACA | 0.105
155 | AGAAGTGG | -0.0889
156 | ATAGGTCA | 0.096
157 | AGGGGGTG | -0.11
158 | CGCCTGAA | 0.0964
159 | GAATTTAC | -0.127
160 | ACAATGAC | 0.209
161 | CTATTTCC | -0.081
162 | CAGACTGA | 0.126
163 | CACACCCC | 0.0769
164 | ACATACGT | -0.0684
165 | AATAACTG | 0.0575
166 | GCTCGAGC | 0.0705
167 | ACAGGCTG | 0.0289
168 | ACGGGAAA | -0.174
169 | GACAAGGC | -0.128
170 | GCCTTCGC | 0.096
171 | CGTGCGAA | 0.0076
172 | CCATATCC | 0.0679
